# From publication PMC4336329 (PLoS ONE, 2015)
# Hit rate of the full screen: of about 310,000 compounds, about 14,000 (4.5%) showed an effect of 50% or more. The effect is printed as a negative number. The list shows a part of the results.
# Biological target: human ether-à-go-go-related gene (hERG) potassium channel (human, UniProt Q12809)
# Experiment: primary screen, population patch clamp on CHO cells stably expressing hERG
# 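Also: peak tail current of the secondary pulse compared with the same well before compound.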
# Chain of human ether-à-go-go-related gene (hERG) potassium channel (Q12809 whole entry, looked up): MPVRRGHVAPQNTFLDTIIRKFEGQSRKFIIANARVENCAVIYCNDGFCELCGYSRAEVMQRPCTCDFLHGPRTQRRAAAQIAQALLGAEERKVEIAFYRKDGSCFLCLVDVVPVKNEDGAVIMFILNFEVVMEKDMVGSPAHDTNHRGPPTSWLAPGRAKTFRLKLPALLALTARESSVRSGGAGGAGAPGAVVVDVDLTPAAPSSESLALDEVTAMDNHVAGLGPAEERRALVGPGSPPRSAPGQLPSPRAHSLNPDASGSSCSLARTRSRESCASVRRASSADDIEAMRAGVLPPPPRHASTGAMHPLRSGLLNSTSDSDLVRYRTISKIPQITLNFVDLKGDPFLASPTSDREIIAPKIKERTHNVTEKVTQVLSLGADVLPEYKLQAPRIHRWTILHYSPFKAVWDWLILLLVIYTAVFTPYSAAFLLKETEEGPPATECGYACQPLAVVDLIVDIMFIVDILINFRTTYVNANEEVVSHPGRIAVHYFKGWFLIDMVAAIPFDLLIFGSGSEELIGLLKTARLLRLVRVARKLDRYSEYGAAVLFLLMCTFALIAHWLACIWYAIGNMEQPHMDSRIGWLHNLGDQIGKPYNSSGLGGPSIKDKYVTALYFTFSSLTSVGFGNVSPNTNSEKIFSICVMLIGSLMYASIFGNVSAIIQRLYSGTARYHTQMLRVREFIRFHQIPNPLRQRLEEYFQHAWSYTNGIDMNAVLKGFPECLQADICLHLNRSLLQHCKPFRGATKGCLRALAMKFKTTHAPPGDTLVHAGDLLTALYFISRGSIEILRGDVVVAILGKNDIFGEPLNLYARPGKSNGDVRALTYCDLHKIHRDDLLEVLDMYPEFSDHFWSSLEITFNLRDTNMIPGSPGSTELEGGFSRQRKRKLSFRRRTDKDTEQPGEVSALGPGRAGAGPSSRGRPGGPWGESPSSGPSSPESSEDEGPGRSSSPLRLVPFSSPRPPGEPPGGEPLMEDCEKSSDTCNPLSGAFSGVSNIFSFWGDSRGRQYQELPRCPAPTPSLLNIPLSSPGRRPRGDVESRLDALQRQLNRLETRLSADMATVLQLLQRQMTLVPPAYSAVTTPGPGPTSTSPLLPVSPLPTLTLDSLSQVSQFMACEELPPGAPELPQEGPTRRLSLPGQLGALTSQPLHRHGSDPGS
row,Structure (SMILES),"hERG current change (%, negative = inhibition) at 10uM"
1,COc1ccccc1NC(=O)CSc1nnc(C2CCCCC2)n1N,5.54%
2,COC(=O)c1ccccc1NC(=O)CSc1nnc(-c2ccc(OC)cc2)n1C,-49.6%
3,Cc1ccc2nc(SCC(=O)N(C)C3CCS(=O)(=O)C3)[nH]c2c1 (centres unmarked),-0.59%
4,Cc1cccc(-c2noc(CNC(=O)COc3ccccc3C)n2)c1,-1.88%
5,O=C(NCC1CCCO1)c1cccc(Oc2ccccc2)c1 (centres unmarked),-37.5%
6,COc1ccc(C(=O)Oc2cc(C)[nH]c(=O)c2[N+](=O)[O-])c(OC)c1,11.9%
7,COc1cc2nc(CN3CC=C(c4ccccc4)CC3)[nH]c(=O)c2cc1OC,8.47%
8,O=C(CCCN1C(=O)/C(=C/c2ccccc2)SC1=S)NCCCn1ccnc1,-59.9%
9,CC(=O)c1c(C)[nH]c(C(=O)NC2CCSc3ccccc32)c1C (centres unmarked),-7.32%
10,COc1ccccc1C(C(=O)NCc1ccccc1)N(C(=O)c1csnn1)C1CC1 (centres unmarked),-1.7%
11,CCN(CC)C(=O)Oc1cc2c(-c3cc4cccc(OC)c4o3)cc(=O)oc2cc1C,9.85%
12,NC(=O)CC(NC(=O)c1ccc(Br)cc1)c1ccc(NCc2ccc(F)c(F)c2)c([N+](=O)[O-])c1 (centres unmarked),2.84%
13,Cn1c(SCC#N)nnc1-c1cnccn1,6.22%
14,COc1ccccc1C(=O)C1CCCN(C(=O)CCC(=O)c2ccccc2)C1 (centres unmarked),-14.9%
15,O=C(c1cccc(Cl)c1Cl)N1CCN(c2ccccn2)CC1,-4.17%
16,CCOC(=O)Cc1csc(SCC(=O)NC2CCCCC2)n1,2.29%
17,COc1cccc(N2CCN(S(=O)(=O)c3ccc(-n4cnnn4)cc3)CC2)c1,16.6%
18,Cc1oc(-c2cccs2)nc1CS(=O)CC(=O)NCc1ccc2c(c1)OCO2 (centres unmarked),-17.2%
19,Cc1ccccc1C(=O)NCC(c1ccco1)N1CCc2ccccc21 (centres unmarked),-55.7%
20,COc1ccccc1Oc1cc(-n2nc(C)cc2C)ncn1,11.5%
21,Cc1ccc(OCCSc2nc3ncnc(N)c3[nH]2)cc1,4.83%
22,O=C(CCCCCn1c(=S)[nH]c2ccc(N3CCOCC3)cc2c1=O)NCc1ccc2c(c1)OCO2,18.9%

row,Structure (SMILES),"hERG current change (%, negative = inhibition) at 10uM"
1,CCCCCC(=O)Nc1cccc(C2=NOC3(C2)C[C@@H](C(N)=O)N(C(=O)C2(C)CC2)C3)c1 (some centres unmarked),19.1%
2,Cn1c(=O)n(C)c2cc(NC(=O)c3ccccc3NS(C)(=O)=O)ccc21,6.12%
3,CSc1cccc(NC(=O)CN(C)S(=O)(=O)c2cnc[nH]2)c1,15.5%
4,CN(c1ccc(OCC(=O)OCC(=O)Nc2ccc(F)cc2)cc1)S(=O)(=O)c1ccc(Cl)cc1,-59.2%
5,CC1Cc2cc(S(=O)(=O)N3CCCCC3C)ccc2N1C(=O)C1CCC1 (centres unmarked),-17.3%
6,COc1ccc(C)cc1S(=O)(=O)N1CCN(c2cccc(C(F)(F)F)c2)CC1,14.1%
7,CCC(C)NC(=O)c1ccc(CSCc2cccc(F)c2)o1 (centres unmarked),-10.3%
8,O=C1CN(C(=O)c2ccc3nc(Cc4cccc(Cl)c4)oc3c2)CCN1,5.02%
9,COc1ccc2c(C)c(C(=O)O)oc2c1,2.2%
10,CCCCCC(=O)NC(NC(=S)Nc1ccc(S(N)(=O)=O)cc1)C(Cl)(Cl)Cl (centres unmarked),18.8%
11,CC(=O)N1CC(=O)Nc2ccc(Cl)cc2C1c1ccccc1 (centres unmarked),6.8%
12,CCCNC(=O)C1(CC2CC(c3ccccc3)=NO2)CCN(C(=O)c2ccccc2)CC1 (centres unmarked),-68.9%
13,CCOC(=O)C1=C(C)NC(=O)NC1c1ccoc1 (centres unmarked),-1.07%
14,Cc1ccc(C2C(C#N)=C(N)Oc3c2oc(CO)cc3=O)o1 (centres unmarked),14.3%
15,O=C(O)c1ccc(Sc2nnc(-c3cccc(Br)c3)o2)c([N+](=O)[O-])c1,7.75%
16,CCOC(=O)c1sc(NC(C)=O)nc1C,-17%
17,COc1ccc2occ(C(=O)c3cccs3)c2c1,-5.06%
18,CS(=O)(=O)c1ccc2nc(NC(=O)c3ccc(Cn4cc(Br)cn4)o3)sc2c1,-27.1%
19,COc1ccc(/C=C/C(=O)N(Cc2cccs2)C2CCS(=O)(=O)C2)cc1 (centres unmarked),-48.6%
20,Cc1nc2cc(NS(=O)(=O)c3cccc(F)c3)ccc2s1,7.97%
21,O=S(=O)(NCc1ccccc1)NCc1cccc(C(F)(F)F)c1,11.5%
22,O=C(NCCCN1CCCC1)C1CCN(C(=O)c2cc3sccc3n2Cc2ccc(F)cc2)CC1,-11.1%
